No constants are given. Whether binding was seen depends on the method and setting. In cells and extracts the contact can be indirect. Some entries that bind do so weakly or less than the wild type. Tags and fused reporters may be left off the sequences shown.
B1: Snf7-HA (protein, UniProt P39929 1-240)
chain: MWSSLFGWTSSNAKNKESPTKAIVRLREHINLLSKKQSHLRTQITNQENEARIFLTKGNKVMAKNALKKKKTIEQLLSKVEGTMESMEQQLFSIESANLNLETMRAMQEGAKAMKTIHSGLDIDKVDETMDEIREQVELGDEISDAISRPLITGANEVDEDELDEELDMLAQENANQETSKIVNNNVNAAPISENKVSLPSVPSNKIKQSENSVKDGEEEEDEEDEDEKALRELQAEMGL
B2: Atg17-HA (protein, UniProt Q06410 1-417)
chain: MNEADVTKFVNNARKTLTDAQLLCSSANLRIVDIKKKLSSWQLSISKLNFLIVGLRQQGKFLYTILKEGIGTKLIQKQWNQAVLVVLVDEMKYWQYEITSKVQRLDGIVNELSISEKDDTDPSKLGDYISRDNVNLLNDKLKEVPVIERQIENIKLQYENMVRKVNKELIDTKLTDVTQKFQSKFGIDNLMETNVAEQFSRELTDLEKDLAEIMNSLTQHFDKTLLLQDKKIDNDEREELFKVVQGDDKELYNIFKTLHEVIDDVDKTILNLGQFLQAKIKEKTELHSEVSEIINDFNRNLEYLLIFKDISNLIDSFKNSCTQDIQTTKELCEFYDNFEESYGNLVLEAKRRKDVANRMKTILKDCEKQLQNLDAQDQEERQNFIAENGTYLPETIWPGKIDDFSSLYTLNYNVKNP

Columns and labels:
GST-Atg17 (yeast) = molecular target: T1, GST-Atg17 (yeast) (UniProt Q06410); test: pull-down; GST pull-down from yeast cell lysates: one protein GST-tagged from a plasmid (pYEX4T-1, 500 µM CuSO4 for 2 h), the other 3×HA-tagged in its endogenous locus; cells starved in SD-N for 30 min; blots with anti-GST and anti-HA; WT and vps21Δ cells (in vps21Δ ∼40% of the interaction observed in WT cells)
T1 sequence: B2 chain

GST-Snf7 (yeast) = molecular target: T2, GST-Snf7 (yeast) (UniProt P39929); test: as above
T2 sequence: B1 chain

Binder	binding (GST-Atg17 (yeast))	binding (GST-Snf7 (yeast))
B1	binds	
B2		binds

Reference: paper PMC6548130
